# The list shows a part of the results. At the low end of the ranking the order means little.
# Test system: T1, GST-NbGlk1(82-244)
# T1 sequence: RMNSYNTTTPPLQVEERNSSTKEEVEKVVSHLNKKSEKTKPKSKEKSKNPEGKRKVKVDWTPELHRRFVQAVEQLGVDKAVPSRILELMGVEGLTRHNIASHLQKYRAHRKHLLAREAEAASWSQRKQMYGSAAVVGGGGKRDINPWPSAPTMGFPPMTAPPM
# Assay: protein-binding microarray;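 also: rank-based score ranging −0.5 to +0.5 with E above 0.45 taken as significant binding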
# Settings: NbGlk1 is a Golden2-like transcription factor of Nicotiana benthamiana; high values mean tight binding; most listed sequences are background and not binding sites; double strand, one strand shown
row,Sequence,binding signal
1,ATCGGCAT,0.156 E-score
2,AGCAGACA,-0.167 E-score
3,AAGCCGGT,-0.217 E-score
4,CACCTTCG,-0.27 E-score
5,CAAGAATA,0.146 E-score
6,ACCCCACA,-0.222 E-score
7,ACTGCAAT,0.211 E-score
8,CAACGCGG,-0.161 E-score
9,ATAGACTA,-0.0113 E-score
10,AAATTGCC,0.148 E-score
11,AATAGTCC,-0.0566 E-score
12,ATGCGGCC,-0.334 E-score
13,ACGGTGGG,-0.0547 E-score
14,AATGTGTA,0.132 E-score
15,CAAAAATA,0.143 E-score
16,ATAGCCCA,0.0393 E-score
17,ACTAAGGG,-0.158 E-score
18,ACGACCAA,-0.0382 E-score
19,AATTTTCC,0.175 E-score
20,CAGATGCA,-0.12 E-score
21,ACGTGGCT,-0.152 E-score
22,AGATGGGA,-0.0529 E-score

row,Sequence,binding signal
1,ATGAATAG,-0.0103 E-score
2,AGTATTTG,0.208 E-score
3,ATTCTCTG,0.358 E-score
4,AACGACAA,0.0396 E-score
5,ATCCCGCA,0.289 E-score
6,ATAAGAAA,0.112 E-score
7,AATACGTA,0.165 E-score
8,ACACCCGA,-0.175 E-score
9,ATACTGCC,0.0301 E-score
10,AACTTCGC,0.0397 E-score
11,AATGATTG,0.0725 E-score
12,ATCACGCA,0.163 E-score
13,AACGCCTA,-0.126 E-score
14,AGGAAAGA,-0.124 E-score
15,ACGTGCTC,-0.166 E-score
16,AAGGGAGG,-0.161 E-score
17,ATATTCCG,0.36 E-score
18,AGCGTAAC,-0.0111 E-score
19,ACAACACA,0.0999 E-score
20,ATCAACTC,0.0894 E-score
21,ACGCGAAG,-0.0403 E-score
22,AATGGTGC,-0.217 E-score

row,Sequence,binding signal
1,ATAATACC,0.0183 E-score
2,AATGGATC,0.152 E-score
3,ATTAGGAA,0.0217 E-score
4,CAAAGCTG,-0.0649 E-score
5,ATGCCTGC,-0.147 E-score
6,AGCAAAAA,-0.0149 E-score
7,ACCGCCAG,-0.118 E-score
8,ACGCGAGC,-0.113 E-score
9,CACAAACC,0.0339 E-score
10,ATCTGTAC,0.32 E-score
11,AGTGATGG,-0.114 E-score
12,ATAGTACG,-0.00778 E-score
13,AGTGCATC,-0.0849 E-score
14,ACGTCAGG,-0.0944 E-score
15,ACCGCCTA,-0.0787 E-score
16,AGGTGGTA,-0.059 E-score
17,AATCCCCC,0.215 E-score
18,AATTATGA,0.075 E-score
19,ATCGTTTA,0.154 E-score
20,AGCATAGA,0.0316 E-score
21,ACGGGCCT,-0.26 E-score
22,AATAGATC,0.247 E-score

row,Sequence,binding signal
1,AGAGCTGA,-0.149 E-score
2,ATTGTTAA,0.167 E-score
3,AGAAGTCC,-0.11 E-score
4,CACTAACG,-0.0933 E-score
5,AGAGCCGG,-0.284 E-score
6,ATCACTGC,0.0571 E-score
7,AGTATCCG,0.328 E-score
8,ATACACCG,0.0886 E-score
9,AACGCAGA,0.0909 E-score
10,AAGTAAGC,0.0576 E-score
11,AGCTTGTC,-0.173 E-score
12,AGCCAGCC,-0.315 E-score
13,ATCTGTGG,0.0582 E-score
14,AACTATTC,0.0588 E-score
15,AACCTACT,-0.121 E-score
16,ATTTTTAA,0.221 E-score
17,ACCTTACA,-0.151 E-score
18,ACGGGCAC,-0.216 E-score
19,CAGCCTGC,-0.271 E-score
20,AGAGAGAT,0.241 E-score
21,AACTCTCG,-0.139 E-score
22,ACGCATAT,0.135 E-score

row,Sequence,binding signal
1,ATATATTA,0.229 E-score
2,AGCCCGCA,-0.24 E-score
3,ATCTAACA,0.189 E-score
4,ATTTTTCA,0.253 E-score
5,ATGCACCG,-0.0282 E-score
6,ATTCAGCC,-0.125 E-score
7,AGGACGGG,-0.199 E-score
8,AGGCCGTG,-0.0812 E-score
9,AATTTGGC,0.0936 E-score
10,AGTCGAAA,0.00178 E-score
11,ACTTTATC,-0.113 E-score
12,AGATGGTG,-0.159 E-score
13,CAGCGTAA,0.0765 E-score
14,AGCAGTAG,-0.164 E-score
15,AACCGGCA,-0.0824 E-score
16,CAATGTCC,-0.122 E-score
17,ATGGAAGC,-0.232 E-score
18,ATCATTTC,0.0315 E-score
19,AGGGACAA,-0.0574 E-score
20,CACCGTCC,-0.0564 E-score
21,AAACGTTG,-0.0651 E-score
22,ATGCCGTC,-0.0301 E-score
